# Where “and” joins values, the source holds several entries; their conditions need not be identical. Equal entries are not always repeated. Screen size: about 240,000 compounds; about 20 (0.008%) were called active. This list was built around the results that the source calls inconclusive (neither active nor inactive); the mix of calls is not that of the screen. Calls come from the whole dose curve; as a rule, active = well fitted inhibition curve with a large enough effect; inconclusive = small, poorly fitted or top-dose-only effect, or effect the other way; inactive = flat fitted curve, though single readings scatter. Potencies of inconclusive entries are left out as doubtful fits.
# Target: Alpha-galactosidase A (Homo sapiens) (UniProt P06280)
# Experiment: qHTS Assay for Inhibitors and Activators of Human alpha-Galactosidase From Spleen Homogenate;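 for activity change, negative = inhibition: 0% = enzyme with vehicle and -100% = no enzyme basal signal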
# Conditions: 4MU-alpha-Gal fluorescence, 40 min; activity change, negative = inhibition: at 80 µM (top of the series)
# Summary of the method: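 Human spleen homogenate (1 ug) as enzyme source, 4-methylumbelliferyl-alpha-D-galactopyranoside 1 mM final, citrate/phosphate pH 5.0 with 0.01% Tween-20. Compounds 40 min at 37C, NaOH/glycine stop; fluorescence Ex 365/Em 440, Hill-fit AC50.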
# Potency is the fitted concentration of half-maximal effect; tags give direction and shape of the fitted curve.
# Chain of UniProt P06280 (P06280 whole entry, looked up): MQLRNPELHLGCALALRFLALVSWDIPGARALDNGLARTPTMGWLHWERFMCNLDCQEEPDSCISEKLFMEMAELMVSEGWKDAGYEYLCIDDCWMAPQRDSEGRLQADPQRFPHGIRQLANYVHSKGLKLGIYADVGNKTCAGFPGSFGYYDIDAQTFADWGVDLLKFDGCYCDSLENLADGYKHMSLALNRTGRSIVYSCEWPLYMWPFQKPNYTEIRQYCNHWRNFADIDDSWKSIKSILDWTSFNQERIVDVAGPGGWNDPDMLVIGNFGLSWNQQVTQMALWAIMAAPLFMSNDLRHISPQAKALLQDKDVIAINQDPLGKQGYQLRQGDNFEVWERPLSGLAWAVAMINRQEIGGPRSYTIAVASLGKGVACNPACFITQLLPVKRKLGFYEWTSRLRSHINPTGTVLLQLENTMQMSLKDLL
Compound,Potency,"activity change, negative = inhibition"
CCc1c(C)c2cc(Cl)c(O)c(CN(CC)CC)c2oc1=O,"inconclusive [activator, partial curve]",–
CC1(C)CC(=O)C2=C(C1)Nc1ncnn1C2c1cccs1 (configuration not stated),"inconclusive [activator, partial curve]",–
Fc1ccc(Nc2nc(-c3ccncc3)cs2)cc1,inactive,–
COc1ccc(C(C)=O)cc1COC(=O)CNC(=O)c1ccccc1F,inactive,–
CC1(C)CC(=O)c2cc(C(=O)NCc3ccco3)c(=O)n(-c3ccc(Cl)cc3)c2C1,"inconclusive [inhibitor, partial curve]",–
O=C1C2C(c3ccccc3)=NN(c3ccccc3)C2C(=O)N1c1ccccc1 (configuration not stated),"inconclusive [activator, partial curve]",–
O=C(NCc1cccnc1)NC1(C(F)(F)F)Oc2ccccc2O1,"inconclusive [activator, single point]",–
Cc1ccc(/C=C\c2nccc3c2[nH]c2ccccc23)cc1,"inconclusive [activator, partial curve]",–
COc1ccc(N=c2oc3cc(O)ccc3cc2C(=O)NCC2CCCO2)c(OC)c1 (configuration not stated),"inconclusive [activator, single point]",–
CCCN(CCC)CCCNC(=O)c1cc2cc3ccc(OC)cc3nc2o1,"inconclusive [activator, partial curve]",–
Cc1ccc(-c2cc(-c3ccco3)c(C#N)c(=O)[nH]2)cc1,"inconclusive [activator, partial curve]",–
O=C1c2cc(O)cc(O)c2OC[C@@H]1c1ccc(O)c(O)c1,inactive,–
Cc1ccccc1NC(=O)Cn1cccc1,inactive,–
COc1cccc(NC(=S)NNC(=O)C(C)n2nc(C)c([N+](=O)[O-])c2C)c1 (configuration not stated),inactive,–
CCC(C(=O)NNC(=O)c1cnccn1)c1ccccc1 (configuration not stated),inactive,–
CCCCc1nc2c(=O)[nH]c3ccccc3c2o1,"inconclusive [inhibitor, single point]",–
COc1ccc(OC)c(C=Nc2ccccc2-c2nc3ccccc3[nH]2)c1,"inconclusive [activator, partial curve]",–
O=C(Cn1c(=O)[nH]n(-c2ccccc2)c1=O)N1CCCc2ccccc21,"inconclusive [inhibitor, partial curve]",–
C=CCOC(=O)/C=C/NC(=O)/C=C/C=C/CCCCCCCC(C)O (configuration not stated),–,inactive: 13.3% [at 17.5 µM] and inactive: 7.66% [at 17.5 µM]
CSc1nc(N(C)NC(=O)c2ccc(Cl)cc2)c2ccccc2n1,inactive,–
COc1ccccc1Nc1nc(Cl)c(C=O)s1,"inconclusive [inhibitor, single point]",–
O=C(Cn1cnc2c(nnn2Cc2ccc(Cl)cc2)c1=O)NCc1ccco1,inactive,–
COc1ccccc1N=c1oc2cc(O)ccc2cc1C(N)=O,"inconclusive [activator, partial curve]",–
CS(=O)(=O)N1CCCC(C(=O)NCc2ccc(F)cc2)C1 (configuration not stated),"inconclusive [inhibitor, single point]",–

Compound,Potency,"activity change, negative = inhibition"
C[C@H](NC(=O)/C(C#N)=C/c1ccc(O)c(O)c1)c1ccccc1,"inconclusive [inhibitor, full curve, poor fit]",–
CCN(CC)C(=O)c1ccc2c3c(cccc13)C(=O)N(CCc1ccc(OC)c(OC)c1)C2=O,inactive,–
Cc1cccc(C(=O)n2c(=S)nc3cc(C)ccn32)c1,inactive,–
Cc1ccc(/C=C/C(=O)N2CC(=O)Nc3ccccc32)o1,inactive,–
CSc1cnc2c(=O)n(C)c(=O)[nH]c2n1,"inconclusive [activator, partial curve]",–
CCNc1nc(C)c2cc(Br)c(=O)n(CC)c2n1,"inconclusive [activator, partial curve]",–
CCNc1ncc2ncc(=O)n(C[C@H]3CCCO3)c2n1,"inconclusive [activator, partial curve]",–
CCOC(=O)C1CCN(S(=O)(=O)c2nc3nc(C)cc(C)n3n2)CC1,"inconclusive [inhibitor, single point]",–
C=CCOc1ccc(C(=O)N(Cc2ccc(N(C)C)cc2)C2CCS(=O)(=O)C2)cc1 (configuration not stated),inactive,–
CCc1cccc2nc3c(c([Si](CC)(CC)CC)c12)Cn1c-3cccc1=O,"inconclusive [activator, partial curve]",–
CCCCSc1nnc(-c2ccc(C)cc2)c2ccccc12,inactive,–
CCOP(=O)(OCC)c1nc(-c2cccc3ccccc23)oc1NCc1ccc(OC)cc1,"inconclusive [activator, partial curve]",–
CCOc1cc(/C=C2/NC(=O)N(CC(=O)Nc3cccc(C)c3)C2=O)ccc1O,inactive,–
Cc1c(O)c(CN2CCCCC2)cc2c3c(c(=O)oc12)CCC3,"inconclusive [activator, full curve]",–
Cc1c(C#N)c(N)nc2c3c(sc12)NC(=O)CC3c1ccccc1 (configuration not stated),"inconclusive [activator, partial curve]",–
CCCCc1nc2c(c3c1C[C@H](C)OC3)CN(S(=O)(=O)c1ccc(NC(C)=O)cc1)CC2,–,inactive: 11.4% [at 17.5 µM]
COc1cccc(-c2cc(N(C)Cc3ccco3)ncn2)c1,"inconclusive [inhibitor, single point]",–
CC(=O)c1ccc(NC(=O)C2CC(=O)N(Cc3ccccc3)C2)cc1 (configuration not stated),"inconclusive [inhibitor, partial curve, poor fit]",–
CCCC(=O)Nc1cccc(-c2cn3cccnc3n2)c1,"inconclusive [activator, single point]",–
COc1ccc(C2Nc3cc(OC)ccc3-n3cccc32)cc1 (configuration not stated),"inconclusive [activator, single point]",–
O=C(COc1ccc2ccccc2c1)N1CCN(C(=O)c2ccco2)CC1,"inconclusive [inhibitor, partial curve]",–
COc1ccc(C2OC34CCCCC3C(C#N)(C#N)C2(C#N)C(=N)O4)cc1 (configuration not stated),"inconclusive [activator, single point]",–
COc1ccccc1CCNC(=O)CSc1nnc2ccc(-c3cccnc3)nn12,"inconclusive [inhibitor, single point]",–
CN1CCN(c2ncc3nc(-c4ccc(Cl)cc4)c(=O)n(C4CC4)c3n2)CC1,"inconclusive [activator, single point]",–

Compound,Potency,"activity change, negative = inhibition"
CC(C)c1ccc(C2C3CSCC=C3C(C#N)=C(N)C2(C#N)C#N)cc1 (configuration not stated),inactive,–
CCOC(=O)c1c(N)n(C2CC(C)(C)NC(C)(C)C2)c2nc3ccccc3nc12,"inconclusive [activator, partial curve]",–
CC1=CC(c2ccccc2)n2nc(NC(=O)CCC(=O)O)nc2N1 (configuration not stated),"inconclusive [activator, single point]",–
Cc1ccc(Cn2nnc3c(=O)[nH]c(C4CCN(S(=O)(=O)c5ccc(F)cc5)CC4)nc32)cc1,inactive,–
COCCNc1cc(C)nc2c3c(C)cc(C)nc3nn12,"inconclusive [activator, partial curve]",–
COCCCNC(=O)CCC(=O)Nc1ccc2nc(N3CCOCC3)cc(C)c2c1,"inconclusive [activator, single point]",–
CN1CCN(c2ncc3ncc(=O)n(C[C@H]4CCCO4)c3n2)CC1,"inconclusive [activator, partial curve]",–
CN1CCN(C=Nc2nc3ccccc3nc2N2CCCC2)CC1,"inconclusive [activator, single point]",–
CCC/C=N/NC(=O)c1cc(Br)ccc1O,inactive,–
Cc1cc(-c2ccc(N=Nc3cc(S(=O)(=O)O)c4ccccc4c3N)c(C)c2)ccc1N=Nc1cc(S(=O)(=O)O)c2ccccc2c1N,inactive,–
COc1ccc(CNc2oc(-c3cccc4ccccc34)nc2C#N)cc1,"inconclusive [activator, single point]",–
CCCCCCOc1ccc(C(CC(N)=O)C(=O)O)cc1 (configuration not stated),inactive,–
O=C1CC(c2cccs2)CC2=C1C(c1ccccc1)n1ncnc1N2 (configuration not stated),"inconclusive [activator, partial curve]",–
C(=C\c1nccc2c1[nH]c1ccccc12)/c1ccccc1,"inconclusive [activator, partial curve]",–
CCc1ccc(S(=O)(=O)/N=C2/C=C(Sc3ncn[nH]3)C(=O)c3ccccc32)cc1,inactive,–
COc1ccc(-c2nc3ccccc3n2Cc2ccc(C)cc2)cc1,inactive,–
CN(C)c1cccc(C(=O)NCc2ccc(Cl)cc2)c1,"inconclusive [inhibitor, partial curve, poor fit]",–
CCOC(=O)c1cnc2cc(C)ccn2c1=O,"inconclusive [activator, partial curve]",–
COc1cccc(NC(=S)NCCN2CCOCC2)c1,inactive,–
O=C(CSC1=N/C(=C/c2ccc(Cl)c(Cl)c2)C(=O)N1c1ccccc1F)NC1CC1,"inconclusive [activator, partial curve]",–
CC(=O)Oc1ccc(N2C(=O)CCC2=O)cc1,"inconclusive [activator, full curve, poor fit]",–
COc1ccc2c(C)cc(SCC#N)nc2c1,inactive,–
CCN1CCN(c2oc(/C=C/c3ccccc3)nc2C#N)CC1,"inconclusive [activator, partial curve]",–
CCCC(=O)Oc1ccc2c(C)cc(=O)oc2c1,"inconclusive [activator, partial curve]",–
